Here are results for 92 compounds from PubChem BioAssay AID463173 (ICCB-Longwood Screening Facility, Harvard Medical School, 2010).

About 4,300 (8.3%) of roughly 52,000 compounds were called active. Cut-off read from the data, not from the text of the source: active = survival mostly below about 52% (no sharp cut-off); inactive = mostly above about 56%. The list shows a part of the results.

The subject of the assay is DeltatarO mutant. Put plainly: S. aureus survival, RN4220 and DeltatarO strains – OD600, teichoic acid synthesis inhibitors, primary screen (AID 463173). The note with it: S. aureus RN4220 wild type/DeltatarO growth, OD600, 18 h, active compounds read low, screened at 18.75 µg/mL (by protocol).
As for `CCOc1ccc(CNS(=O)(=O)c2c(C(=O)N3CCCCCC3)c(C)n(C)c2C)cc1OC`, the survival is inactive: 69%.
The figure for `CCn1cc(C(=O)NCc2ccc(C)cc2)c(=O)c2cc(S(=O)(=O)N3CCC(C)CC3)ccc21` is inactive: 118%.
The result for `O=C(NCCSCc1ccc(Cl)cc1)C1CCN(S(=O)(=O)Cc2ccccc2)CC1` reads inactive: 70%; that for `Cc1ccc(-c2c(C(=O)Nc3ccc(F)c(F)c3)oc(=O)c3ccccc23)cc1`, inactive: 80%; that for `CN(C)c1ccc(CNC(=O)c2cc3cc(S(=O)(=O)N4CCCCC4)ccc3n2C)cc1`, active: 8%.
The result for `O=C(CN1C(=O)C2CCCCN2c2ccc(C(=O)N3CCCC3)cc21)NCc1cccc(Cl)c1` (configuration not stated) reads inactive: 68%; that for `COc1ccc(CNC(=O)CCC(=O)N2CC3CCCN3c3ccccc32)cc1` (configuration not stated), inactive: 71%.
With `COc1ccccc1CNC(=O)c1ccc(CS(=O)(=O)c2ccccc2C)o1`, the survival is inactive: 67%.
The figure for `O=C(NCc1ccccc1)c1ccc(NC(=O)c2nsc3ccccc23)cc1` is inactive: 61%.
In the case of `O=C(Nc1cccc(-n2cnnn2)c1)c1ccccc1`, the survival is inactive: 95%.
As for `COc1cc(CN(CC2CCCO2)C(=O)c2ccc(F)cc2)cc(OC)c1OC` (configuration not stated), the survival is inactive: 67%.
The result for `CC(=O)N1CCCc2cc(S(=O)(=O)N3CCC(C(=O)NCc4ccc(N(C)C)cc4)CC3)ccc21` reads inactive: 69%; that for `CCOc1cccc(CC(=O)Nc2ccc3nc(N4CCCCC4)cc(C)c3c2)c1OCC`, inactive: 131%; that for `Cc1ccc(NC(=O)Nc2nnc(N3CCCC3)s2)c(C)c1`, inactive: 93%.
The figure for `Cc1ccc(CNC(=O)Cc2coc3cc(C)cc(C)c23)cc1` is inactive: 102%.
For the compound `COc1ccc(C=Nc2ccc3[nH]ncc3c2)c(O)c1`, the survival is inactive: 97%.
With `CCCCN(C)C(=O)C1CCCN(c2ncnc3onc(-c4ccc(F)cc4)c23)C1` (configuration not stated), the survival was inactive: 77%.
The figure for `Cc1cccc(N2CCN(C(=O)CSCc3ccc(F)cc3)CC2)c1C` is inactive: 94%.
With `CCN(CC)S(=O)(=O)c1ccc2c(c1)c(=O)c(C(=O)NCc1ccccc1)cn2C`, the survival is inactive: 70%.
The result for `Cc1cc(C)cc(-n2cnc3ccccc3c2=O)c1` reads inactive: 96%; that for `Cc1ccc(C(C)C)c(OCC(=O)Nc2ccc(S(=O)(=O)Nc3onc(C)c3C)cc2)c1`, inactive: 134%.
The figure for `Cc1ccc(C2c3c(oc4ccccc4c3=O)C(=O)N2c2ccc(C)cn2)cc1` (configuration not stated) is inactive: 69%.
As to `CCOc1ccc2nc(NC(=O)CS(=O)(=O)c3ccc(Cl)cc3)sc2c1`, the survival was inactive: 60%.
As to `N#Cc1ccc(CN2C(=O)c3ccccc3Sc3ccc(C(=O)OCc4ccco4)cc32)cc1`, the survival was inactive: 113%.
Turning to `COc1ccccc1CNC(=O)C(CC(C)C)NS(=O)(=O)c1ccc2c(c1)oc(=O)n2C` (configuration not stated), the survival was inactive: 82%.
The figure for `Cn1c(=NC(=O)c2ccc3c(c2)OCCO3)sc2cc(S(C)(=O)=O)ccc21` is inactive: 89%; for `Cc1ccccc1-c1noc(C(C)NC(=O)c2ccco2)n1` (configuration not stated) it is inactive: 79%.
With `O=C(NC1C2CC3CC(C2)CC1C3)c1cc2ccccc2o1` (configuration not stated), the survival is inactive: 76%.
The result for `CSc1cccc(N=C2C(=O)Nc3ccccc32)c1` reads inactive: 76%; that for `CCN1CCN(C(C)C(=O)Nc2ccc3c(c2)OCO3)CC1` (configuration not stated), inactive: 103%.
Turning to `Nn1c(C2CC2)nc2cc(Cl)ccc2c1=O`, the survival is inactive: 77%.
The figure for `CCC(=O)N1CCc2cc(S(=O)(=O)NCCC(=O)NCc3ccccc3Cl)ccc21` is inactive: 80%; for `Cc1sc2nc(C(C)C)n3c(=S)[nH]nc3c2c1C` it is inactive: 74%; for `CCOC(=O)c1ccc(NC(=O)C2CCCN(c3ccc(Sc4ccc(C)cc4)nn3)C2)cc1` (configuration not stated) it is inactive: 43%.
In the case of `Cc1cc(Br)ccc1NC(=O)CCS(=O)(=O)c1cccc2nsnc12`, the survival is inactive: 139%.
Turning to `CC(=O)NCCNc1nc2c(S(=O)(=O)c3ccc(C)c(C)c3)nnn2c2ccc(Cl)cc12`, the survival is inactive: 75%.
On to `COC(=O)c1ccc(-n2nnc(-c3nc(-c4ccc5c(c4)OCO5)no3)c2C)cc1`, for which the survival was inactive: 82%.
`CC(C)c1nc2ccc(C(=O)NCCCN3CCN(c4ccccc4F)CC3)cc2o1`: the survival was inactive: 88%.
The figure for `CCN(C(=O)CN(C)S(=O)(=O)c1ccc2c(c1)c(=O)n(C)c(=O)n2C)c1ccc(OC)cc1` is inactive: 90%; for `CC1=C(C(=O)OCC2CCCCC2)C(c2ccccc2F)CC(=O)N1` (configuration not stated) it is inactive: 91%; for `COc1ccccc1CNC(=O)C1CCCN(c2nnc(-n3c(C)ccc3C)s2)C1` (configuration not stated) it is inactive: 73%.
The figure for `O=S(=O)(Nc1ccncc1)c1ccccc1` is inactive: 70%; for `Cc1ccc(C)c(NC(=O)CN2C(=O)COc3ccc(Cl)cc32)c1` it is inactive: 69%.
In the case of `Cn1c(=O)nc2n(-c3ccc(Cl)c(Cl)c3)c3cc(Cl)ccc3cc-2c1=O`, the survival is inactive: 87%.
The result for `O=C(Nc1c(C(=O)Nc2ccc(F)cc2)oc2ccccc12)c1ccccc1F` reads active: 40%; that for `CCn1c(SCCOc2ccccc2F)nc2ccccc21`, active: 0%; that for `C/C(CCc1ccc2c(c1)OCO2)=N\N=C1/NC(=O)CC(C(=O)O)S1` (configuration not stated), inactive: 78%.
The figure for `CCOc1ccccc1C(=O)Nc1ccc2c(c1)N(C)C(=O)c1ccccc1S2` is inactive: 70%; for `Cc1cccc(CC(C(=O)Nc2ccccc2)c2nn[nH]n2)c1` (configuration not stated) it is inactive: 99%.
The result for `c1ccc(Cn2nnc3c(N4CCCC4)ncnc32)cc1` reads inactive: 94%; that for `Cc1c(C2=CCN(S(=O)(=O)c3ccc(CC(C)C)cc3)CC2)c2ccccc2n1CC(=O)N1CCCC1`, inactive: 99%.
Turning to `Cc1nn(-c2ccc(N3CCOCC3)nn2)c(C)c1CCC(=O)NCc1ccc(OC(C)C)cc1`, the survival was inactive: 74%.
The result for `COc1ccc(C(=O)N(Cc2ccc(C(C)C)cc2)C2CCS(=O)(=O)C2)cc1` (configuration not stated) reads inactive: 62%.
The result for `Cc1ccccc1CNS(=O)(=O)c1csc(C(N)=O)c1` reads inactive: 120%.
The figure for `Cc1nc2nc(SCC(=O)NCCc3ccccc3)nn2c(C)c1Cc1c(F)cccc1Cl` is active: 37%.
Turning to `Cc1ccc(C(C)C)c(OCC(=O)N2CCC(c3nc4ccccc4o3)CC2)c1`, the survival is inactive: 80%.
The result for `NC1CCSc2ccccc21` (configuration not stated) reads inactive: 85%; that for `COc1ccc(N(CC(=O)N2CCN(c3cccc(C)c3C)CC2)S(=O)(=O)c2c(C)noc2C)cc1`, inactive: 94%; that for `COc1ccc(-c2cn3nc(N4CCC(C(=O)Nc5cccc(C)c5C)CC4)sc3n2)cc1`, inactive: 67%.
The result for `Cc1c(Cl)cccc1NC(=O)CSc1nc(=O)n(Cc2ccccn2)c2c1CCC2` reads inactive: 105%; that for `O=C(O)COc1ccccc1/C=N\n1cnnc1`, inactive: 94%; that for `Cc1cccc(N(C)S(=O)(=O)c2cc3c(cc2Cl)NC(=O)CO3)c1`, inactive: 81%.
The result for `Cc1nn2c(=O)cc(COC(=O)c3cccc(NC(=O)c4cccs4)c3)nc2s1` reads inactive: 67%; that for `CCOc1ccc(NS(=O)(=O)c2ccc3[nH]c4c(c3c2)CCCC4)cc1`, inactive: 76%.
On to `Cc1ccc(NC(=O)C(NS(=O)(=O)c2ccc3c(c2)CCC(=O)N3)c2ccccc2)cc1C` (configuration not stated), for which the survival was inactive: 87%.
The figure for `CCOC(=O)C1CCN(CCC(=O)Nc2ccc(Br)c(C)c2)CC1` is inactive: 62%.
On to `O=C(CSc1nc(=O)[nH]c2c1CCCC2)Nc1ccccc1C(F)(F)F`, for which the survival was inactive: 113%.
On to `CNC(=O)C1=C(C)NC(=O)NC1c1cccs1` (configuration not stated), for which the survival was inactive: 99%.
The figure for `CC1CC(C)CN(c2c3c(nc4cc(-c5ccc(F)cc5)nn24)CCC3)C1` (configuration not stated) is inactive: 101%; for `COc1cc(NC(=O)Cn2nc(C(F)(F)F)c3c2CCCC3)c(OC)cc1Cl` it is inactive: 78%.
The result for `O=C(Nc1ccc(F)cc1F)c1cc(-c2ccccc2O)no1` reads inactive: 85%; that for `Cc1ccc(NC(=O)Cn2c(=O)n(CCCCC(=O)NCCc3ccccc3)c(=O)c3ccccc32)c(C)c1`, inactive: 84%.
The figure for `Cc1nn2c(=O)cc(COC(=O)c3ccc(NC(=O)C4CCCCC4)cc3)nc2s1` is inactive: 123%; for `CCCCOC(=O)c1ccc(NC(=O)c2cc3c(=O)n4cccc(C)c4nc3n2C)cc1` it is inactive: 69%.
Take `COc1ccccc1OCC(O)CN` (configuration not stated): the survival is inactive: 76%.
Take `O=C(COc1ccccc1Cl)Nc1ccc2oc(-c3ccccc3F)nc2c1`: the survival is active: 67%.
Take `COCCNC(=O)CCCn1c(=O)c2cc(OC)c(OC)cc2n(CC(=O)Nc2ccc(F)cc2)c1=O`: the survival is inactive: 93%.
As to `CCOC(=O)c1ccc(NC(=O)Cn2cc(C(=O)c3ccc(CC)cc3)c(=O)c3ccc(C)nc32)cc1`, the survival was inactive: 100%.
The figure for `CCN1c2ccccc2-c2nc(SCC(=O)NCc3ccc(C)cc3)ncc2S1(=O)=O` is inactive: 105%.
The figure for `CCC(=O)Nc1cccc(C)c1` is inactive: 80%; for `CCOC(=O)c1cnc2ccccc2c1NCCc1ccc(OC)c(OC)c1` it is active: 33%; for `COc1ccc(CNC(=O)c2cnc3sc(N4CCCCCC4)nn3c2=O)cc1` it is inactive: 101%.
The result for `O=S(=O)(c1cccc2nsnc12)N(CCOc1ccccc1)C1CCCCC1` reads inactive: 90%; that for `CCn1c(CSc2ncccn2)nnc1SCC(=O)N1CCc2ccccc21`, inactive: 98%; that for `O=C1CCC(C2CCC3(CC2)OCCO3)CC1`, inactive: 99%.
Regarding `O=C(CN1C(=O)CSC1=O)CN1C(=O)CSC1=O`, the survival was inactive: 101%.
The figure for `O=C(CCS(=O)(=O)c1cc2c(cc1Cl)NC(=O)CO2)NCc1ccccc1Cl` is inactive: 83%; for `Cc1cccc(OCc2nnc(SCC(=O)N(C(C)C)C(C)C)n2Cc2ccco2)c1C` it is inactive: 73%.
The figure for `O=C(NCc1cccc(Cl)c1)c1ccc(NC(=O)N2CC3CCCN3c3ccccc32)cc1` (configuration not stated) is inactive: 84%; for `Oc1c(C(c2ccc(Cl)cc2Cl)N2CCN(c3ccccc3)CC2)sc2nc(-c3ccco3)nn12` (configuration not stated) it is inactive: 101%.
The result for `CC(C)Oc1ccc(CNC(=O)c2ccc(CN3CC(=O)N4CCCCC4C3=O)cc2)cc1` (configuration not stated) reads inactive: 122%.
Regarding `CC1(C)CC2(CCO1)NNC(=S)NN2`, the survival was inactive: 97%.
